Assay results: the supplement of paper PMC3334620
In all, about 33,000 sequences were measured (“E-score (-0.5 to 0.5)”: median about -0.01, highest 2% from about 0.26 on). This is one part of the list.

What follows are sequences tested against Ste12 (UniProt P13574) (assay: PBM E-score (8-mer binding enrichment) (E-score (-0.5 to 0.5)); higher = stronger / more preferred TF binding; most listed sequences are background and not binding sites). Conditions: protein concentration: 200 nM; construct: GST-DNA-binding domain.
Summary of the method: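 Masliner-normalised scans of fluorescent anti-GST signal were the basis for scoring. That signal came from GST-tagged yeast transcription factors applied at about 100-200 nM to double-stranded universal all-10-mer Agilent arrays on fresh or once-stripped slides. Each ungapped eight-base word, pooled with its reverse complement, received an E-score from the Universal PBM Analysis Suite.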
With AATGTTCT the “PBM E-score” value was -0.0305. With AGAGCATG the “PBM E-score” value was -0.125. With ATCCCGAA the “PBM E-score” value was 0.0596. For TAAATTGA, the “PBM E-score” value was 0.288. AGTAAACT was tested, and the “PBM E-score” value was 0.0484. With AAATAGGT the “PBM E-score” value was 0.208. GCGGACGA was tested, and the “PBM E-score” value was 0.0443. For ACCTGAAG, the “PBM E-score” value was 0.023. With AGCGCGTA the “PBM E-score” value was 0.0668. For ACGCTCTC, the “PBM E-score” value was -0.122. With TCATATGA the “PBM E-score” value was 0.177. AGAGTGAC was tested, and the “PBM E-score” value was -0.237. For GTAATTAA, the “PBM E-score” value was 0.0563. With GGTATCTA the “PBM E-score” value was 0.0708. CTAACGTA was tested, and the “PBM E-score” value was 0.0416. With ACCCTTGC the “PBM E-score” value was -0.0913. ACACCACA was tested, and the “PBM E-score” value was -0.0192. For CGTTGAGA, the “PBM E-score” value was -0.0342. For ACAACTTG, the “PBM E-score” value was -0.0539. In the case of AGGCTTTC, the “PBM E-score” value is reported as -0.00566. For CCTAATGA, the “PBM E-score” value was 0.13. For ACTATTGG, the “PBM E-score” value was -0.0275. In the case of CTATGTCA, the “PBM E-score” value is reported as 0.018. In the case of AAGAACCT, the “PBM E-score” value is reported as -0.0241. For CCCGAGCG, the “PBM E-score” value was -0.146. With ACGGCAAC the “PBM E-score” value was -0.0958. In the case of GATTATGC, the “PBM E-score” value is reported as 0.126. GATATAAA was tested, and the “PBM E-score” value was 0.0834. In the case of ACACAGAA, the “PBM E-score” value is reported as -0.0541. For AACCGGGT, the “PBM E-score” value was 0.108. For GCAGGTCA, the “PBM E-score” value was 0.0148. In the case of CAGGTCAG, the “PBM E-score” value is reported as -0.0848. AATGCCAT was tested, and the “PBM E-score” value was 0.1. In the case of AACCGGTT, the “PBM E-score” value is reported as 0.129. TCCGCCGA was tested, and the “PBM E-score” value was 0.0254. For AGAATTAA, the “PBM E-score” value was 0.195. For AAGCAGCC, the “PBM E-score” value was -0.078. With GGAAACGA the “PBM E-score” value was 0.275. In the case of AAATGGTG, the “PBM E-score” value is reported as 0.213. For TCAACTGA, the “PBM E-score” value was 0.0803. AGGATAGC was tested, and the “PBM E-score” value was -0.0337. ACCGTCTG was tested, and the “PBM E-score” value was -0.00201. In the case of ACACATGA, the “PBM E-score” value is reported as 0.179. For ATAGCGTG, the “PBM E-score” value was -0.0588. With ATTGATTC the “PBM E-score” value was 0.23. For CACCTTAC, the “PBM E-score” value was -0.0153. With AGGCTCTG the “PBM E-score” value was -0.0774. For TAGAAGGA, the “PBM E-score” value was -0.202. With AACAGAAC the “PBM E-score” value was 0.201. For TATCCAGA, the “PBM E-score” value was 0.052. With CCGGGCCG the “PBM E-score” value was 0.0193. For ATGGAATG, the “PBM E-score” value was -0.0794. For AAAAGGGG, the “PBM E-score” value was 0.00194. In the case of GGAAATAA, the “PBM E-score” value is reported as 0.284. ATCTTCGC was tested, and the “PBM E-score” value was 0.0331. For ATACAGTC, the “PBM E-score” value was -0.0893. In the case of ACTGTATC, the “PBM E-score” value is reported as 0.102. AACGCACC was tested, and the “PBM E-score” value was 0.103. In the case of AGCACCTA, the “PBM E-score” value is reported as -0.0986. CATGACGG was tested, and the “PBM E-score” value was -0.0121. For CGCCATCA, the “PBM E-score” value was -0.114. For GGGGTGTA, the “PBM E-score” value was -0.142. CGGGTTAA was tested, and the “PBM E-score” value was 0.0516. CGAGATAA was tested, and the “PBM E-score” value was 0.211. For ATAGGTGC, the “PBM E-score” value was 0.00643. For TCGTAGAA, the “PBM E-score” value was -0.0518. With AGGCATAG the “PBM E-score” value was -0.0107. With CATTACAG the “PBM E-score” value was 0.112. CCCCGGCA was tested, and the “PBM E-score” value was -0.0173. For GTCACGTA, the “PBM E-score” value was -0.151. With CTCGCGAG the “PBM E-score” value was 0.219. In the case of AATGTTGT, the “PBM E-score” value is reported as 0.0307. In the case of AATAGATA, the “PBM E-score” value is reported as 0.223. With CGGCTACA the “PBM E-score” value was 0.0056. With GCTTTTCA the “PBM E-score” value was 0.0798. With AGGCACTC the “PBM E-score” value was -0.157. With CTCTCCCC the “PBM E-score” value was -0.0617. With CGTCACGA the “PBM E-score” value was 0.127. AATCCGGG was tested, and the “PBM E-score” value was 0.116. For ACCCTGTC, the “PBM E-score” value was -0.147. AGTAAGTA was tested, and the “PBM E-score” value was 0.166. CCGGCGAA was tested, and the “PBM E-score” value was 0.0568. CGGTCCCA was tested, and the “PBM E-score” value was -0.197. In the case of GGGCACCA, the “PBM E-score” value is reported as -0.137. In the case of CGGTCGCA, the “PBM E-score” value is reported as -0.0691. For GTTCCACA, the “PBM E-score” value was 0.00282. For CCGACACG, the “PBM E-score” value was 0.0247. ATGGGTGA was tested, and the “PBM E-score” value was -0.0464. With CTCTCTAC the “PBM E-score” value was -0.147. CACGCCGA was tested, and the “PBM E-score” value was -0.0909. For CGCAGGCA, the “PBM E-score” value was -0.062. With ATACGTAA the “PBM E-score” value was 0.0648. In the case of CCAACCAG, the “PBM E-score” value is reported as -0.225. For CAAATGGG, the “PBM E-score” value was 0.119. For ATGGTCTC, the “PBM E-score” value was 0.11. For ATCGAGCA, the “PBM E-score” value was -0.00019. In the case of GGAGCCAC, the “PBM E-score” value is reported as -0.161. With ACTATTAT the “PBM E-score” value was 0.113. For ACTGGTTC, the “PBM E-score” value was -0.0919. In the case of CCGCTGCG, the “PBM E-score” value is reported as -0.0389. For ACAGTATA, the “PBM E-score” value was 0.0891. For GCTACTCC, the “PBM E-score” value was -0.00343. CTGTAAAA was tested, and the “PBM E-score” value was 0.219. In the case of GAAGCTAA, the “PBM E-score” value is reported as -0.0448. In the case of AGCTCGAT, the “PBM E-score” value is reported as 0.00368. GATCTGGA was tested, and the “PBM E-score” value was 0.0761. In the case of AGGTTATG, the “PBM E-score” value is reported as 0.0846. In the case of CGCGCGTA, the “PBM E-score” value is reported as 0.0065. In the case of AACAAATC, the “PBM E-score” value is reported as 0.12. With TGTCTCAA the “PBM E-score” value was 0.246. GTCTACCA was tested, and the “PBM E-score” value was -0.188. GCTATCAA was tested, and the “PBM E-score” value was 0.109. In the case of TCTGGCAA, the “PBM E-score” value is reported as 0.0559. In the case of AGTTCTCA, the “PBM E-score” value is reported as 0.0827. With TATACCAA the “PBM E-score” value was 0.226. CGGCGAAG was tested, and the “PBM E-score” value was -0.0536. GTATTGAA was tested, and the “PBM E-score” value was 0.144. With AAAAAATA the “PBM E-score” value was 0.267. In the case of GATTAACC, the “PBM E-score” value is reported as -0.117. In the case of AATGCAAA, the “PBM E-score” value is reported as 0.202. With AATGTAAT the “PBM E-score” value was 0.187. In the case of AGAACGCC, the “PBM E-score” value is reported as -0.148. CCGCGTCC was tested, and the “PBM E-score” value was 0.0467. GGCATGAA was tested, and the “PBM E-score” value was 0.188. For AATTCTCG, the “PBM E-score” value was 0.237. For CCCCCGTC, the “PBM E-score” value was -0.246. In the case of ACACCCTG, the “PBM E-score” value is reported as -0.185. With ATTCTTAG the “PBM E-score” value was -0.0832. ACAAACTA was tested, and the “PBM E-score” value was 0.158. GGCATCTA was tested, and the “PBM E-score” value was -0.0304. For GGACGTCA, the “PBM E-score” value was -0.0412. In the case of TCCACAAA, the “PBM E-score” value is reported as 0.14. For ACTCAACT, the “PBM E-score” value was 0.166. For AATCCTAA, the “PBM E-score” value was 0.234. AATATCAT was tested, and the “PBM E-score” value was 0.118. For AACGTCTG, the “PBM E-score” value was -0.00956. In the case of AGACAGTA, the “PBM E-score” value is reported as -0.0507. For AGGGGTAG, the “PBM E-score” value was -0.0327. GATTTTCA was tested, and the “PBM E-score” value was 0.115. GAAAGCTA was tested, and the “PBM E-score” value was 0.017. With AAGCAGAA the “PBM E-score” value was 0.109. For AATTGGGC, the “PBM E-score” value was -0.0357. CCTAGTGC was tested, and the “PBM E-score” value was -0.0666. With ACCCTACA the “PBM E-score” value was -0.063. With CCGCAGGC the “PBM E-score” value was 0.033. With CATTCGAC the “PBM E-score” value was 0.00565. For ACGAGACT, the “PBM E-score” value was -0.249. CTAGCAAA was tested, and the “PBM E-score” value was 0.145. With AAGGAGAT the “PBM E-score” value was -0.0682. AAGCCACT was tested, and the “PBM E-score” value was -0.163. For ACCCCTCC, the “PBM E-score” value was 0.229. In the case of CGGGGCAC, the “PBM E-score” value is reported as -0.0935. For CCGGAATC, the “PBM E-score” value was -0.0232. For CGTTCCCC, the “PBM E-score” value was 0.00256. In the case of TGAATGCA, the “PBM E-score” value is reported as 0.174. For CTACGGCC, the “PBM E-score” value was -0.278. ACGTATGA was tested, and the “PBM E-score” value was 0.138. GGTAACGA was tested, and the “PBM E-score” value was 0.0224. GGAATCCA was tested, and the “PBM E-score” value was -0.0608. For ACGATTTA, the “PBM E-score” value was 0.171. For CAGTGAGC, the “PBM E-score” value was -0.155. In the case of TCCTCCCA, the “PBM E-score” value is reported as -0.0691. For CCGCCAGG, the “PBM E-score” value was -0.206. With CTCTAGCA the “PBM E-score” value was -0.0672. AATCTTGG was tested, and the “PBM E-score” value was -0.0302. With CGGCCGTA the “PBM E-score” value was -0.01. For ACTGTAGC, the “PBM E-score” value was -0.157. For AAAAAAAA, the “PBM E-score” value was 0.367. In the case of AGGAAGGG, the “PBM E-score” value is reported as -0.213. AGGTACAC was tested, and the “PBM E-score” value was -0.144. TAGACCCA was tested, and the “PBM E-score” value was 0.102. CCACGGGA was tested, and the “PBM E-score” value was -0.126.
